{"source": "PubChem BioAssay AID1030", "about": "(National Center for Advancing Translational Sciences (NCATS), 2008)", "note": "Hit rate of the full screen: of about 220,000 compounds, about 16,000 (7.3%) were called active. Inconclusive results, whose numbers are uncertain, are shown with a selection of clear calls. The call rests on the fitted dose curve; in most records, active means well fitted inhibition curve with a large enough effect (not every such curve was filed as active); inconclusive means small, poorly fitted or top-dose-only effect, or another doubt; inactive means no such curve, though single readings can be large or run the other way. Potencies of inconclusive entries are left out as doubtful fits. Potency means the concentration at half of the fitted maximal effect; tags describe the fitted curve by direction and shape."}
{"target": "Aldehyde dehydrogenase 1A1 (Homo sapiens) (UniProt P00352)", "sequence (P00352 whole entry, looked up)": "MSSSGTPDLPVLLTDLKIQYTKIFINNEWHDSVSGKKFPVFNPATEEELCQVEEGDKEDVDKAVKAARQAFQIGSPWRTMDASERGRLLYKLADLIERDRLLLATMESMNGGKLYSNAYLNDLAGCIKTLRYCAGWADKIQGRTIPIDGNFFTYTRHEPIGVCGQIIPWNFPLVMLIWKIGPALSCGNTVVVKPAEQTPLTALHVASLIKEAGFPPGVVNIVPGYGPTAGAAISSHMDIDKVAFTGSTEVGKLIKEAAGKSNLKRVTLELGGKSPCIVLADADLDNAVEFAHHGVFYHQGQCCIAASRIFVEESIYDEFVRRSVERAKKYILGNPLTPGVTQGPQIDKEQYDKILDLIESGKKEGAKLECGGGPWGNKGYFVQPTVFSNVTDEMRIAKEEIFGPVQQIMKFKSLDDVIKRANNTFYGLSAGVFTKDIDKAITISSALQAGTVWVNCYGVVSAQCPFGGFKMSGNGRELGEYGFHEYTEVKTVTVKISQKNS", "assay": "qHTS Assay for Inhibitors of Aldehyde Dehydrogenase 1 (ALDH1A1);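 on activity, negative = inhibition: plate controls were no enzyme wells and a reference inhibitor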", "conditions": "Purified ALDH1A1, NADH fluorescence, propionaldehyde substrate; series mostly up to 75.3 µM; activity, negative = inhibition: at the top concentration"}
{"smiles": "Cc1ccc2cc(CN(Cc3ccco3)C(=O)NC3CCCCC3)c(=O)[nH]c2c1C", "Potency": "inconclusive [inhibitor, single point]"}
{"smiles": "c1ccc(Cc2cc[n+](Cc3ccccc3)cc2)cc1", "activity, negative = inhibition": "inactive: -6.45%"}
{"smiles": "C=C(c1cccc2ccccc12)P(=O)(O)O", "activity, negative = inhibition": "inactive: 2.87%"}
{"smiles": "O=C(CSc1nnc2scc(-c3ccccc3)n12)NCc1ccc2c(c1)OCO2", "activity, negative = inhibition": "inactive: 11.2%"}
{"smiles": "COc1cc([N+](=O)[O-])ccc1NC(=O)C[n+]1cccc(C(C)=O)c1", "Potency": "inconclusive [inhibitor, partial curve, poor fit]"}
{"smiles": "CN(NC(=O)/C=C/C(=O)O)c1ncc(C(F)(F)F)cc1Cl", "Potency": "active: 2.82 µM"}
{"smiles": "CC12CCC(C(=O)NCc3ccc(Cl)cc3)(OC1=O)C2(C)C", "note": "(stereo unspecified)", "Potency": "inconclusive [inhibitor, single point]"}
{"smiles": "O=S(=O)(c1ccc(-c2cn3ccccc3n2)cc1)N1CCOCC1", "Potency": "inconclusive [inhibitor, partial curve]"}
{"smiles": "CCc1nc(Nc2ccc3nccnc3c2)c2oc3ccccc3c2n1", "Potency": "inconclusive [inhibitor, partial curve]"}
{"smiles": "Cc1cc(C)nc(SCC(=O)Nc2ncc3c(n2)CC(C)(C)CC3=O)n1", "Potency": "inconclusive [inhibitor, partial curve]"}
{"smiles": "CC(C)(C)CC(C)(C)NCC(O)COCCOc1ccc(Br)cc1", "note": "(stereo unspecified)", "Potency": "inconclusive [inhibitor, single point]"}
{"smiles": "Cc1ccc(C(=O)Oc2ccccc2N2C(=O)C3C4CCC(C4)C3C2=O)cc1", "note": "(stereo unspecified)", "Potency": "inconclusive [inhibitor, single point]"}
{"smiles": "COc1ccc(C2N=C(c3ccccc3)C(C)(C)N2O)cc1", "note": "(stereo unspecified)", "activity, negative = inhibition": "inactive: -2.74%"}
{"smiles": "COC(=O)c1sc(NC(=O)CC(C)C)c(C(=O)OC)c1C", "Potency": "inconclusive [inhibitor, partial curve]"}
{"smiles": "CCOC(=O)N/N=C\\c1ccc(-c2cc(Cl)ccc2Cl)o1", "activity, negative = inhibition": "inactive: -1.02%"}
{"smiles": "COc1ccc(CNCc2cccc(OC)c2OC)cc1Br", "Potency": "inconclusive [inhibitor, partial curve]"}
{"smiles": "O=C(NC(=S)NCCO)c1sc2ccccc2c1Cl", "Potency": "inconclusive [inhibitor, single point]"}
{"smiles": "COc1ccc(OC)c(NC(=O)Cn2cc(C=O)c3ccccc32)c1", "Potency": "inconclusive [inhibitor, single point]"}
{"smiles": "CNC(=S)N/N=C/c1ccc(OCC(=O)Nc2c(C)cc(C)cc2C)c(OC)c1", "activity, negative = inhibition": "inactive: 10.8%"}
{"smiles": "COCCn1c(=O)[nH]c2cc(C(=O)NCCCN3CCN(c4ccc(F)cc4)CC3)ccc2c1=O", "Potency": "inconclusive [inhibitor, single point]"}
{"smiles": "O=C(COc1ccccc1)NCCSCc1ccccc1Cl", "Potency": "inconclusive [inhibitor, single point]"}
{"smiles": "Cc1nn(C)c(C)c1-c1c(C#N)c(N)nc2c1CCCCCC2", "Potency": "inconclusive [inhibitor, single point]"}
{"smiles": "Cc1nc2cncnc2n(Cc2ccccc2Cl)c1=O", "Potency": "inconclusive [inhibitor, partial curve]"}
{"smiles": "CCOC(=O)c1ccc(NC(=O)C2CCN(S(=O)(=O)CC)CC2)cc1", "Potency": "inconclusive [inhibitor, single point]"}
{"smiles": "CCC(CC)NC(=O)c1cccc(Oc2ccccc2)c1", "activity, negative = inhibition": "inactive: 2.68%"}
{"smiles": "CCCC(=O)Nc1nc2ccc(S(N)(=O)=O)cc2s1", "Potency": "inconclusive [inhibitor, single point]"}
{"smiles": "CC(C)CC(=O)NC(=S)Nc1ccccc1C(F)(F)F", "Potency": "active: 17.8 µM"}
{"smiles": "CCc1ccc(C2N(c3ccc(OC)cc3)C(=O)C3CCCN32)cc1", "note": "(stereo unspecified)", "Potency": "inconclusive [inhibitor, partial curve]"}
{"smiles": "COCCn1c(=O)c(-c2cn(C)c3ccccc23)nc2cnc(OCc3ccccc3)nc21", "Potency": "inconclusive [inhibitor, partial curve]"}
{"smiles": "CCN1CCc2c(sc(NC(=O)c3ccc(S(=O)(=O)N4CCOCC4)cc3)c2C(N)=O)C1", "Potency": "active: 39.8 µM"}
{"smiles": "Cc1cc(NC(=O)CCC(=O)N(c2ccccc2)C(C(=O)NC2CCCC2)c2ccccc2)no1", "note": "(stereo unspecified)", "Potency": "active: 25.1 µM"}
{"smiles": "COc1ccc(-c2ccc3c(n2)sc2c(=O)[nH]c(=O)[nH]c23)cc1OC", "Potency": "inconclusive [inhibitor, single point]"}
{"smiles": "c1ccc(-n2nnnc2NCCc2c[nH]c3ccccc23)cc1", "Potency": "inconclusive [inhibitor, single point]"}
{"smiles": "Cc1cc2ncn(C(=O)c3c(-c4ccccc4Cl)noc3C)c2cc1C", "Potency": "inconclusive [inhibitor, single point]"}
{"smiles": "CCOc1cc(/C=N/NC(=O)c2cccnc2)cc(Br)c1OCC(N)=O", "activity, negative = inhibition": "inactive: 11.8%"}
{"smiles": "O=C(CCSc1nc(-c2ccco2)cc(C(F)(F)F)n1)N1CCN(c2ccccn2)CC1", "Potency": "inconclusive [inhibitor, single point]"}
{"smiles": "Cc1ccc(C2=N/C(=C/c3cccs3)C(=O)N2Nc2ccccc2)cc1", "Potency": "inconclusive [inhibitor, single point]"}
{"smiles": "O=C(Nc1ccc2c(c1)OCCO2)c1ccc(S(=O)(=O)N2CCCCC2)cc1", "Potency": "active: 25.1 µM"}
{"smiles": "Cc1ccc(C(=O)COC(=O)c2ccccc2NC(=O)c2ccccc2)cc1[N+](=O)[O-]", "Potency": "inconclusive [inhibitor, partial curve, poor fit]"}
{"smiles": "Cc1ccc(-c2nnc(SCc3nc4ccccc4[nH]3)n2Cc2ccco2)cc1", "Potency": "active: 15.8 µM"}
{"smiles": "COC(=O)c1ccc(C)c(NC(=O)CCc2ccc(OC)cc2)c1", "Potency": "active: 20 µM"}
{"smiles": "O=C(Nc1cc(N2CCCCC2)ncn1)c1ccc(F)cc1", "Potency": "inconclusive [inhibitor, single point]"}
{"smiles": "CN(Cc1ccco1)c1nc(-c2cccc(C#N)c2)nc2ccccc12", "Potency": "inconclusive [inhibitor, single point]"}
{"smiles": "Cc1csc(SCC(=O)NC(=O)NC(C)(C)C)n1", "activity, negative = inhibition": "inactive: -12.9%"}
{"smiles": "O=c1[nH]c(=O)n([C@@H]2C[C@H](O)[C@H](CO)O2)cc1C(F)(F)F", "activity, negative = inhibition": "inactive: 4.75% [at 20.9 µM]"}
{"smiles": "CCCCN1C(=O)C2NN=C(C(=O)OC)C2C1=O", "note": "(stereo unspecified)", "activity, negative = inhibition": "inactive: 6.51%"}
